Hit rate of the full screen: of about 340,000 compounds, about 12,000 (3.5%) were called active. Inconclusive results, whose numbers are uncertain, are shown with a selection of clear calls. The call rests on the fitted dose curve; in most records, active means well fitted inhibition curve with a large enough effect; inconclusive means small, poorly fitted or top-dose-only effect, or another doubt; inactive means no such curve, though single readings can be large or run the other way. No potency is given beside an inconclusive call; the fits are too rough.
Assay: qHTS Assay for Inhibitors of Hepatitis C Virus (HCV)
Details: Huh7.5.1 HCVcc-Cre (HCVcc is cell-culture hepatitis C virus) infection, luciferase reporter, 44 h; activity change, negative = inhibition: at 41.8 µM (top of the series) unless noted
How it was run: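 After 44 h co-culture of compound, cells and HCVcc-Cre (~0.5 moi), substrate is added for 15 min at room temperature and luciferase measured over 15 sec. Cells were seeded at 1,000/well and pre-cultured 4 h.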
On the % scale 0 is the no-effect control and ±100 the full control effect; potency means the concentration at half of the fitted maximal effect; tags describe the fitted curve by direction and shape.

Row | SMILES | Potency | activity change, negative = inhibition
1 | COc1ccc(NS(=O)(=O)c2ccc3c(c2)oc(=O)n3C)cc1Cl | inconclusive [inhibitor, single point] | 
2 | CCOc1c(Br)cc(Br)cc1/C=C1\SC(N)=NC1=O | inactive | 
3 | COc1ccc(/C=N/Nc2nc(N3CCCC3)nc(N3CCCC3)n2)c(OC)c1OC | inconclusive [inhibitor, full curve] | 
4 | COc1ccccc1/C=C1\SC(=S)N(CCC(=O)NNC(=O)c2ccccc2O)C1=O | inconclusive [inhibitor, partial curve] | 
5 | O=C(Nc1cccnc1)c1cccc(S(=O)(=O)N2CCc3ccccc32)c1 | inconclusive [inhibitor, single point] | 
6 | COc1cc(C2=NOC(C(=O)Nc3ccc(C(C)=O)cc3)C2)cc(OC)c1OC (centres undefined) | inactive | 
7 | Cc1ccc(C)c(-n2c(N)c(C(N)=O)sc2=S)c1 | inconclusive [inhibitor, single point] | 
8 | Cc1ccc(C(=O)Oc2ccccc2N2CCOCC2)cc1 | inactive | 
9 | CS(=O)(=O)N1CCCC(c2nc(-c3ccc(S(=O)(=O)NCc4ccccc4)cc3)no2)C1 (centres undefined) | inconclusive [inhibitor, full curve] | 
10 | CC(=O)c1cccc(CN2CCC(CO)(CCOc3ccccc3)CC2)c1 | inactive | 
11 | COc1ccc(C(=O)On2c(-c3ccc(Br)cc3)nc3ccccc3c2=O)cc1 | inconclusive [inhibitor, single point] | 
12 | COc1ccc(S(=O)(=O)N2CCCC(C(=O)N3CCN(C)CC3)C2)cc1Cl (centres undefined) | inconclusive [inhibitor, single point] | 
13 | O=C(COc1ccc(Cl)cc1)Nc1nc(-c2ccc(S(=O)(=O)N3CCOCC3)cc2)cs1 | active: 11.2 µM | 
14 | O=C(Nc1cccc2cccnc12)c1cc(F)c(F)cc1Cl | inconclusive [inhibitor, single point] | 
15 | COc1cc(C(=O)N2CCN(C(=O)C3COc4ccccc4O3)CC2)cc(OC)c1OC (centres undefined) | inactive | 
16 | CCc1ccc(-c2cc(C(=O)N/N=C/c3ccccn3)[nH]n2)cc1 | inactive | 
17 | COc1ccc(/C=N/n2c(=O)[nH]c3c([nH]c4ccc(Br)cc43)c2=O)cc1CN1CCOCC1 | inactive | 
18 | COc1cccc(-n2cc(CNCc3c(C(=O)N(C)C)nc4ccc(Cl)cn34)cn2)c1 | inconclusive [inhibitor, partial curve] | 
19 | CCCn1nnc(NC(=O)c2cc(Br)ccc2OC)n1 | inconclusive [inhibitor, single point] | 
20 | COc1cc(CN(C)c2ncnc3sccc23)ccc1OC(F)F | inconclusive [inhibitor, single point] | 
21 | Cc1cccc2cc(CN(Cc3cccs3)S(=O)(=O)c3ccc4c(c3)OCCO4)c(=O)[nH]c12 | inconclusive [inhibitor, single point] | 
22 | CN(C(=O)c1cccc(NC(=O)Cc2ccc(NC(=O)C3CCCN(C(=O)CCc4ccccc4)C3)cc2)c1)C1CCCCC1 (centres undefined) | active: 3.16 µM | 
23 | CCn1cc(/C=C/c2cc[n+](C)cc2)c2ccccc21 | active: 2.51 µM | 

Row | SMILES | Potency | activity change, negative = inhibition
24 | CCOC(=O)c1csc(N/N=C2\CCc3ccccc32)n1 | inconclusive [inhibitor, partial curve] | 
25 | CC1CCCCN1S(=O)(=O)c1ccc(C(=O)Nc2nnc(-c3ccco3)o2)cc1 (centres undefined) | inconclusive [inhibitor, single point] | 
26 | O=C(Nc1ccc(N2CCCCC2)c(Cl)c1)c1ccc(N2CCOCC2)c([N+](=O)[O-])c1 | inconclusive [inhibitor, partial curve, poor fit] | 
27 | CCOC(=O)Cc1csc(NC(=O)/C=C\c2ccccc2Cl)n1 | active: 10 µM | 
28 | CC(=O)C1=C(O)C(=O)N(CCc2c[nH]c3ccccc23)C1c1ccc(C)cc1 (centres undefined) | inactive | 
29 | CC(C)(C)S(=O)N1Cc2cc(CO)ccc2[C@@H]1CCO (some centres undefined) | inactive | 
30 | O=C(c1cc2c(s1)-c1ccccc1OC2)N1CCC2(CC1)OCCO2 | inactive | 
31 | CC(C)=CCC/C(C)=C/Cc1c(O)ccc(C(=O)/C=C/c2ccc(O)cc2)c1O | active: 25.1 µM | 
32 | CCC(=O)OCCNc1cc(Sc2nc3ccccc3[nH]2)c2nonc2c1[N+](=O)[O-] | inconclusive [inhibitor, single point] | 
33 | Cc1ccccc1N1CCN(CC(=O)Nc2ccccc2C(=O)NC2CC2)CC1 | inconclusive [inhibitor, single point] | 
34 | Cc1ccc(N2C(=O)NC(=O)/C(=C\c3ccsc3)C2=O)cc1C | inactive | 
35 | CSc1nnc(NC(=O)c2nc(S(=O)(=O)Cc3ccc(C)cc3)ncc2Cl)s1 | active: 12.6 µM | 
36 | COc1ccc(S(=O)(=O)N2CCCCCC2)cc1N(C)S(=O)(=O)c1ccccc1 | inconclusive [inhibitor, partial curve] | 
37 | CSc1cccc(NC(=O)C2CCN(S(=O)(=O)c3ccc(F)cc3)CC2)c1 | active: 11.2 µM | 
38 | Cc1cccc(-c2nc(CS(=O)CC(=O)NCCc3ccc(Cl)cc3)c(C)o2)c1 (centres undefined) | inconclusive [inhibitor, partial curve] | 
39 | CCN(CC)CC(C)(C)C(=O)/C=C/c1ccc(/C=C/C(=O)C(C)(C)CN(CC)CC)cc1 | active: 2.24 µM | 
40 | COc1ccccc1OCCC(=O)OCC(=O)c1[nH]c(C)c(C(C)=O)c1C | inactive | 
41 | O=C(CN1C(=O)CCSc2ccccc21)Nc1ccc(F)cc1 | inconclusive [inhibitor, single point] | 
42 | CCOc1cc(CNC2CCCC2)ccc1OCc1ccccc1Cl | active: 3.16 µM | 
43 | COc1ccccc1NS(=O)(=O)c1cc(NC(=O)c2ccc(NC(C)=O)cc2)ccc1N1CCOCC1 | inconclusive [inhibitor, single point] | 
44 | Cc1cccn2c(=O)c3cc(C#N)c(=O)n(Cc4cccnc4)c3nc12 | inconclusive [inhibitor, full curve, poor fit] | 
45 | O=C(c1cc(COc2ccc(F)cc2F)on1)N1CCCC(c2ccccc2)C1 (centres undefined) | inconclusive [inhibitor, single point] | 
46 | Cc1ccccc1NC(=O)OCc1cccnc1Oc1ccc(Cl)cc1 | inconclusive [inhibitor, single point] | 

Row | SMILES | Potency | activity change, negative = inhibition
47 | Cc1ccc(NC(=O)CSc2nc3c([nH]c4ccccc43)c(=O)n2C)cc1 | inactive | 
48 | CCN1CCN(C(c2cccnc2)c2cc(Cl)c3cccnc3c2O)CC1 (centres undefined) | inconclusive [inhibitor, single point] | 
49 | O=C(Nc1ccccc1)c1nc[nH]c1C(=O)NCCN(CCNC(=O)c1[nH]cnc1C(=O)Nc1ccccc1)CCNC(=O)c1[nH]cnc1C(=O)Nc1ccccc1 | inconclusive [inhibitor, single point] | 
50 | Cc1ccc(NS(=O)(=O)c2cc(NC(=O)C(C)Oc3ccccc3)ccc2C)c(C)c1 (centres undefined) | inconclusive [inhibitor, single point] | 
51 | CC(Cc1cccnc1)NC(=O)c1cc(COc2ccc(F)cc2F)on1 (centres undefined) | inconclusive [inhibitor, single point] | 
52 | CCN1CCN(c2ccc(S(=O)(=O)N3CCCCC3)cc2NC(=O)COc2ccc(F)cc2Cl)CC1 | inconclusive [inhibitor, single point] | 
53 | N=c1c(S(=O)(=O)c2ccc(Cl)cc2)cc2c(=O)n3ccccc3nc2n1Cc1ccco1 | inconclusive [inhibitor, partial curve] | 
54 | O=C(CSc1nnnn1-c1ccc2c(c1)OCO2)NCc1ccccc1 | inconclusive [inhibitor, single point] | 
55 | COc1ccc(NC(=O)CSc2nccn2C)cc1S(N)(=O)=O | inactive | 
56 | CCCNCc1cc(OC)c(OCCC)cc1Cl | inconclusive [inhibitor, partial curve] | 
57 | CCCCc1ccc(NC(=O)CSc2nc(=O)n(CCN3CCOCC3)c3c2CCC3)cc1 | inconclusive [inhibitor, partial curve] | 
58 | CN(C)c1ccc(NC(=O)Cc2ccccc2)c2ccccc12 | inconclusive [inhibitor, partial curve] | 
59 | CCn1nnc2cc(C(=O)Nc3ccc(C(=O)OC(C)C)cc3)ccc21 | inconclusive [inhibitor, single point] | 
60 | CCn1c(C)nc2cc(C(=O)NNS(=O)(=O)c3ccc(C)c(C)c3)ccc21 | inactive | 
61 | O=C(O)COc1cnc2ccccc2n1 | inactive | 
62 | CCc1ccccc1NC(=O)CSc1nc2n[nH]c(C)c2c(=N)n1-c1cccc(OC)c1 | inconclusive [inhibitor, partial curve] | 
63 | CCOc1ccc(/C=N/Nc2nc(C)cs2)c(O)c1 | inconclusive [inhibitor, single point] | 
64 | CC(=O)OC[C@H]1O[C@H](CCO/N=C(\C)CCN2CCCc3nc(C)c(C)cc32)C=C[C@@H]1OC(C)=O |  | inactive: -8.93% [at 8.37 µM]
65 | O=C(Nc1nc(-c2ccccn2)cs1)c1cccc(S(=O)(=O)N2CCOCC2)c1 | active: 3.55 µM | 
66 | O=C(N/N=C/c1cccnc1)c1ccccc1OCc1ccc(Br)cc1 | inconclusive [inhibitor, single point] | 
67 | Cc1ccc(-c2csc3ncnc(SCC(N)=O)c23)cc1 | inconclusive [inhibitor, single point] | 
68 | Cc1nnc(SCC(=O)Nc2cc(S(=O)(=O)N3CCOCC3)ccc2N2CCCC2)s1 | inactive | 
69 | O=C(NN1C(=O)NC2(CCCCC2)C1=O)c1ccc(-c2ccc(Cl)cc2)o1 | active: 11.2 µM | 

Reference: PubChem BioAssay AID651820 (National Center for Advancing Translational Sciences (NCATS), 2012)
